Assay results: patent publication US20100016335A1, “NOVEL AMINOPYRIDINE DERIVATIVES HAVING AURORA A SELECTIVE INHIBITORY ACTION” (priority 2006, published 2010)
Some entries of the source have several records that differ or are many. The list is limited to them. The source may hold further records. Results that share an entry read as repeated measurements on other runs, samples or individuals; a mean can stand among them.

Test system: Human cervical cancer cells (HeLa S3)
Experiment: Effect by combined use of drugs in cells (docetaxel), WST-8 method
Format: cell-based
Settings: docetaxel 0.3 nM alone, HeLa S3, three days; DMSO = 0%
Method: Fetal calf serum (FCS) was purchased from Moregate Biotech, DMEM medium from Invitrogen Corp., docetaxel (tradename: Taxere) from Sigma-Aldrich, Inc., and WST-8 from Kishida Chemical Co., Ltd.
Human cervical cancer cells (HeLa S3) were obtained from the American Type Culture Collection (ATCC).
Cells were suspended in a DMEM medium containing 10% FCS, and the cell suspension was dispensed to two 96-well plastic plates at a rate of 750 cells/100 microliters per well. The plates were incubated overnight in 5% CO2-95% air at 37° C. A drug was subjected to graded dilution in dimethylsulfoxide and further diluted with DMSO or with a DMEM medium containing 10% FCS and also containing 0.6 nM docetaxel. […] Cell growth after incubation was measured by the WST-8 method (H. Tominaga, et al., Anal. Commun., 36, 47-50 (1999)). Here, the WST-8 method refers to a method in which 20 microliters of a WST-8 reagent solution is added to each well, incubation is conducted at 37° C. for 60 minutes, the plate is stirred, and the amount of formazan produced is measured by a colorimetric method to determine the inhibitory rate of the drug. The growth inhibitory effects of docetaxel and of the compound according to the invention were determined, with the value obtained in sole treatment of DMSO being defined as 0%.

`CC(=O)O[C@@]12CO[C@@H]1C[C@H](O)[C@@]1(C)C(=O)[C@H](O)C3=C(C)[C@@H](OC(=O)[C@H](O)[C@@H](NC(=O)OC(C)(C)C)c4ccccc4)C[C@@](O)([C@@H](OC(=O)c4ccccc4)[C@H]21)C3(C)C` [docetaxel, reference compound] was tested, and the “Cell growth inhibitory effect by sole administration of docetaxel (0.3 nM) (%)” value was 52.1, 53.4, 49.6, 48.9% [lines of one column].
